# Data taken from PubChem BioAssay AID1347073 (National Center for Advancing Translational Sciences (NCATS), 2019).
# The campaign covered roughly 45,000 compounds. About 200 (0.44%) were called active. Not shown: some 7% with an inconclusive outcome. Calls come from the whole dose curve; as a rule, active = well fitted activation curve with a large enough effect; inconclusive = small, poorly fitted or top-dose-only effect; inactive = no such curve, though single readings can be large or run the other way. The list shows a part of the results.
# Experiment: qHTS of TDP-43 Inhibitors: NCGC Sytravon Library Screen; note: 0% is about no effect; nearly all actives have a fitted effect of over 55% in size
# Settings: yeast TDP-43 toxicity rescue, BacTiter-Glo growth, 24 h; series mostly up to 46.1 µM; growth rescue (activation): at the top concentration
# Procedure, shortened: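 TDP-43-expressing yeast, pregrown in raffinose, seeded at OD600 0.02 in galactose medium with compound for 24 hr at 30 deg C. Growth read by BacTiter-Glo luminescence, so rescue of toxicity appears as activation.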
row,Compound,growth rescue (activation)
1,Cc1cc(NC(=O)c2sc(Nc3ccc(F)cc3)nc2N)no1,inactive: 10.5%
2,Clc1ccc2c(N/N=C/c3cccnc3)ccnc2c1,inactive: 9.83%
3,Cn1c(=O)[nH]c(=O)c2c1nc(SCC(=O)O)n2CCOc1ccccc1,inactive: 6.17%
4,CCCCCC(=O)Nc1ccc(S(=O)(=O)Nc2nccc(C)n2)cc1,inactive: -6.05%
5,COc1ccccc1OCCCOc1c(C)cc(C)cc1Br,inactive: 26.9%
6,O=C(Nc1ncc(Cc2ccccc2Cl)s1)c1ccc([N+](=O)[O-])cc1,inactive: 15.2%
7,O=C(CSc1nnc(-c2ccccc2Cl)o1)N1CCOCC1,inactive: 13.7%
8,O=C(CN1C(=O)C2C3C=CC(C4CC34)C2C1=O)Nc1cnc2ccccc2c1 (stereo unspecified),inactive: 6.78%
9,CCOC(=O)c1c(N)sc(N)c1C(=O)OCC,inactive: -1.71%
10,COc1cccc(-n2c(=S)sc3c(=O)n(-c4ccccc4OC)c(SCC4OCCO4)nc32)c1,inactive: -5.69%
11,NS(=O)(=O)c1ccc(NC(=O)CCC(=O)N2CCOCC2)cc1,inactive: 1.95%
12,COc1cc(C)c(NC(=S)Nc2ccc(Cl)c(Cl)c2)cc1OC,inactive: 16.7%
13,COC(=O)c1sc(N)c(C(=O)OC)c1COC(=O)C12CC3CC(CC(O)(C3)C1)C2,inactive: 6.31%
14,COCCN(C(=O)CCC(=O)Nc1cc(C)on1)C(C(=O)NC(C)(C)C)c1ccccc1Cl (stereo unspecified),inactive: 14%
15,Cc1cccc(Nc2c3c(nc4nncn24)CCC3)c1,inactive: 25.2%
16,CCc1ccc(NC(=O)Nc2cccc(OC)c2)cc1,inactive: 14.2%
17,Cc1ccc(-c2cc(C(=O)NCCc3ccccc3)c3c(-c4ccc(C)cc4)[nH]nc3n2)cc1,inactive: 8.13%
18,O=C(N/C(=C\c1ccc(Cl)cc1)C(=O)N1CCCCC1)c1ccco1,inactive: 11.7%
19,CCN(CC)CCCN(Cc1cc2cc3c(cc2[nH]c1=O)OCO3)C(=S)Nc1ccccc1,inactive: 0.66%
20,COc1ccc(N2CCN(CCCNC(=O)C3CCN(S(=O)(=O)N4CCOCC4)CC3)CC2)cc1,inactive: 14%
21,O=C(COc1ccc(Br)cc1)Nc1ccc(NC(=O)c2ccccc2)cc1,inactive: -1.21%
22,CCCCN(C)CCNC(=O)c1cc2c(-c3cccc(OC)c3)nn(C)c2s1,inactive: 12.9%

row,Compound,growth rescue (activation)
1,COc1cc(/C=N/NC(=O)c2ccncc2)ccc1OCC(=O)Nc1cccc([N+](=O)[O-])c1,inactive: -8.08%
2,CC(=O)c1cccc(NC(=O)c2cc(=O)[nH]c3ccccc23)c1,inactive: 12.3%
3,CCOC(=O)c1sc(NC(=O)/C=C/c2c(F)cccc2Cl)nc1C,inactive: 14.3%
4,COc1ccc(-c2nnn(CC(=O)NCCc3ccc(OC)c(OC)c3)n2)cc1,inactive: 6.42%
5,C=CCN(CC=C)C(=O)CN1C(=O)NC(c2ccccc2)(c2ccccc2)C1=O,inactive: 7.86%
6,CCCCN(C)C(=O)CCC(=O)Nc1ccc2nc(N3CCN(C)CC3)cc(C)c2c1,inactive: 8.09%
7,CC1=C(C(=O)O)N2C(=O)C(NC(=O)c3ccccc3Cl)C2SC1 (stereo unspecified),inactive: 1.36%
8,CC1=NN(c2ccccc2)C(=O)C1C(=O)c1ccccc1 (stereo unspecified),inactive: 24.9%
9,O=C(c1ccc2c(c1)N(Cc1ccccc1)C(=O)c1ccccc1S2(=O)=O)N1CCN(c2ccccn2)CC1,inactive: 8.05%
10,COc1ccc(CC(=O)OC(C)CN2CCCCC2)cc1 (stereo unspecified),inactive: -0.417%
11,CCSc1ncc(Cl)c(C(=O)Nc2c(C(=O)Nc3ccc(Cl)cc3)oc3ccccc23)n1,inactive: -4.22%
12,CC(C)N1CCC1(C)C(=O)Nc1cccc(C#N)c1 (stereo unspecified),inactive: 1.45%
13,COCCn1c(=O)[nH]c2cc(C(=O)NCCc3ccc(S(N)(=O)=O)cc3)ccc2c1=O,inactive: 11.1%
14,COC(=O)[C@@H](Cc1c[nH]c2ccccc12)NC(=O)CNC(=O)c1ccccc1OC,inactive: 12.4%
15,O=C(OCc1cc2ccccc2[nH]c1=O)C1CCCCC1,inactive: -16.1%
16,COc1ccc(/C=C/c2noc(-c3ccccc3O)n2)cc1,inactive: -28.8%
17,Cc1cc(C)cc(C(=O)NCC(=O)OCC(=O)N2c3ccccc3NC(=O)C2(C)C)c1,inactive: 6.5%
18,CN1CCN(C2=Nc3c(Cl)cc(Cl)c4cccc2c34)CC1,inactive: -18.4%
19,COc1ccc(C(=O)NCCN2C(=O)S/C(=C\c3cccnc3)C2=O)cc1[N+](=O)[O-],inactive: 3.56%
20,O=C(Nc1ccc(NC(=O)c2cccs2)cc1)c1ccc2ccccc2c1,inactive: 6.22%
21,CCC(=O)N(Cc1cc(=O)[nH]c2ccccc12)c1ccc(C)cc1,inactive: -12.7%
22,COc1ccc(NC(=O)CO/N=C(\C)c2cccs2)cc1,inactive: 18.7%

row,Compound,growth rescue (activation)
1,O=C1CCC(C(=O)Nc2cccc(S(=O)(=O)Nc3ccccc3F)c2)=NN1,inactive: -3.84%
2,O=C(NNC(=O)c1ccccc1Cl)c1ccco1,inactive: 0.53%
3,COc1ccc(C(C)=NNc2ccc([N+](=O)[O-])cc2S(=O)(=O)Nc2ccccc2C(=O)O)c(OC)c1,inactive: 23.3%
4,CCN1CCN(CC(=O)N2N=CCC2c2ccccc2)CC1 (stereo unspecified),inactive: -11.1%
5,COc1ccc(NC(=O)c2cc(-c3cccs3)on2)c(OC)c1,inactive: -9.74%
6,COC(=O)c1ccc(C(=O)OC)c(NC(=O)CN2CCCCC2)c1,inactive: -3.38%
7,CC(C)CNS(=O)(=O)c1ccc(C(=O)Nc2ccc3c(c2)OCO3)cc1,inactive: 11.4%
8,CCN(C(=O)CSc1nnc(NCc2ccccc2)s1)C1CCS(=O)(=O)C1 (stereo unspecified),inactive: -2.5%
9,Cc1ccc(-c2cc(N)on2)cc1,inactive: 14.2%
10,CCOC(=O)c1cnc2ccc(C(=O)OC)cc2c1Nc1ccc(C(=O)O)cc1,inactive: -2.13%
11,Cc1onc(-c2ccccc2Cl)c1C(=O)N1CCCCC1C (stereo unspecified),inactive: -12%
12,Cn1c(N)c(C(=O)COC(=O)c2ccccc2C(=O)c2ccc(Cl)cc2)c(=O)n(C)c1=O,inactive: 7.59%
13,Cc1cc(C)c[n+](-c2nc3ccccc3nc2[N-]S(=O)(=O)c2ccc(Br)s2)c1,inactive: -5.46%
14,Cn1c2ccccc2c2nnc(SCC(=O)NC3CCCC3)nc21,inactive: 1.22%
15,Cc1nc2nc[nH]n2c(=O)c1CCOC(=O)c1ccccc1F,inactive: -4.54%
16,CC(=O)c1cccc(N2C(=O)CC(N3CCN(S(=O)(=O)c4ccccc4F)CC3)C2=O)c1 (stereo unspecified),inactive: 10.2%
17,CC(C)CNc1ncnc2c1sc1nc(N3CCOCC3)c3c(c12)CC(C)(C)OC3,inactive: 25.8%
18,CS(=O)(=O)c1cccc(C(=O)Nc2ccccc2Cc2ccccc2)c1,inactive: 15.3%
19,CCN(CC)CCCNC(=O)c1cc(-c2ccc3c(c2)OCO3)on1,inactive: -2.51%
20,O=C(c1ccco1)N1CCN(C(=O)c2cn(-c3ccccc3)nc2-c2ccc(F)cc2)CC1,inactive: 3.97%
21,CCC(C)NCC(=O)Nc1cc(S(=O)(=O)N(CC)c2ccccc2)ccc1Cl (stereo unspecified),inactive: 0.221%
22,COc1cc(C(=O)OCC(=O)Nc2ccc(C(C)=O)cc2)ccc1OCC(=O)N1CCOCC1,inactive: 14.2%
